# Measurements taken from PubChem BioAssay AID686979 (National Center for Advancing Translational Sciences (NCATS), 2013).
# “And” between values parts separate entries of the source, which are not always exact repeats. Equal entries are not always repeated. In all, about 420,000 compounds went through this assay and about 50,000 (12%) were called active. Inconclusive results, whose numbers are uncertain, are shown with a selection of clear calls. Calls follow the shape of the dose curve; as a rule, active = well fitted inhibition curve with a large enough effect; inconclusive = small, poorly fitted or top-dose-only effect; inactive = flat fitted curve, though single readings scatter. Potencies of inconclusive entries are doubtful fits and often do not repeat.
# Test: qHTS for Inhibitors of human tyrosyl-DNA phosphodiesterase 1 (TDP1): qHTS in cells in presence of CPT; also: nearly all actives have a fitted effect of over 55% in size
# Conditions: chicken DT40 Tdp1-/-;hTDP1 cells + 20 nM CPT, ATP luminescence, 48 h; activity change, negative = growth inhibition: at 46.2 µM (top of the series) unless noted
# How it was run: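 Chicken DT40 Tdp1-/- cells stably complemented with human TDP1 were seeded at 400 cells/well in medium containing 20 nM camptothecin, exposed to pin-transferred compounds, and grown at 37 °C for at least 48 hr. Viability was read as ATP luminescence.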
# % is scaled to controls: 0 for no effect and ±100 for the full control effect; potency is read from the fitted curve at half-maximal effect; tags tell the direction and shape of the fitted curve.
SMILES,Potency,"activity change, negative = growth inhibition"
CCOc1ccccc1CNC(=O)C1CCN(Cc2cc3ccccc3n2Cc2ccccc2)CC1,"inconclusive: 20.6 µM [inhibitor, single point]",
Cc1cc(N2CCN(c3ncccn3)CC2)nc2c(C)cccc12,"inconclusive: 23.1 µM [inhibitor, single point]",
N=c1c(S(=O)(=O)c2ccc(Br)cc2)cc2c(=O)n3ccccc3nc2n1C1CCCC1,"inconclusive: 29.1 µM [inhibitor, single point]",
COCC1CCCN(C(=O)c2ccc3oc(C(C)C)nc3c2)C1 (stereo not drawn),inactive,
Cc1ccc(-c2cn3nc(N4CCC(C(=O)Nc5ccccc5C)CC4)sc3n2)cc1,inactive,
CCC(C)NC(=O)c1cc(-c2cccs2)nc2ccccc12 (stereo not drawn),inactive,
Cc1nn(Cc2cccc(C(=O)NC(C)c3ccc(C(C)(C)C)cc3)c2)c(C)c1[N+](=O)[O-] (stereo not drawn),"inconclusive: 29.1 µM [inhibitor, single point]",
O=C(N/N=C/c1ccc([N+](=O)[O-])cc1)c1c[nH]c2ccccc12,"inconclusive: 13 µM [inhibitor, single point]",
Cn1c2ccccc2c2c(C(=O)N3CCN(c4cccc(C(F)(F)F)c4)CC3)cn(C3CCCCC3)c(=O)c21,"inconclusive: 16.4 µM [inhibitor, single point]",
CCOC(=O)c1nc(C)nc(Sc2n[nH]c(-c3cc(C(F)(F)F)cc(C(F)(F)F)c3)n2)c1C,"inconclusive: 25.9 µM [inhibitor, single point]",
CCOC(=O)c1cc(NC(=O)c2ccco2)ccc1N1CCOCC1,inactive,
CCOc1ccccc1CN1CCNC(=O)C1CC(=O)N(C)CCC1CCOCC1 (stereo not drawn),inactive,
O=C(Nc1ccc2c(c1)OCO2)c1cnc(Cl)c(Cl)c1,"inconclusive: 20.6 µM [inhibitor, single point]",
Nn1c(SCc2ccc(F)cc2)nnc1-c1cccnc1,inactive,
CCC(C(=O)Nc1cc(OC)ccc1OC)n1nc(-c2ccccc2)c2c(c1=O)CCCC2 (stereo not drawn),active: 16.4 µM,
CN(C)S(=O)(=O)N(CC(=O)NCCSc1ccc(Cl)cc1)c1ccccc1,"inconclusive: 20.6 µM [inhibitor, single point]",
CN(C)C(=O)c1ccc(-c2nc(Nc3ccccc3)c3ccccc3n2)cc1,"inconclusive: 20.6 µM [inhibitor, single point]",
C/C(=N\NC(=O)c1ccoc1C)c1ccccc1O,active: 10.3 µM,
CCS(=O)(=O)Nc1ccc(C(=O)OC)cc1,inactive,
COc1ccc(NS(=O)(=O)c2ccc(N3CCOCC3)c(NC(=O)c3ccccc3Br)c2)cc1,"inconclusive: 29.1 µM [inhibitor, single point]",
C[C@@H](C(=O)NCc1ccco1)N1C(=O)N2CCc3c([nH]c4ccccc34)[C@@]2(C)C1=O,"inconclusive: 29.1 µM [inhibitor, partial curve, poor fit]",
Nc1nc(SCC(=O)Nc2ccc(Cl)cc2C(F)(F)F)n[nH]1,"inconclusive: 23.1 µM [inhibitor, single point]",
COc1ccc(NC(=O)CC2Nc3cc(C)c(C)cc3NC2=O)c([N+](=O)[O-])c1 (stereo not drawn),"inconclusive: 16.4 µM [inhibitor, single point]",

SMILES,Potency,"activity change, negative = growth inhibition"
Fc1ccc(NC(=S)N2CCN(c3ccccn3)CC2)cc1Cl,"inconclusive: 29.1 µM [inhibitor, single point]",
COc1ccc(N(CC(=O)Nc2cc(C)ccc2OC)S(=O)(=O)c2c(C)noc2C)cc1,active: 23.1 µM,
OC(c1ccc2c(c1)CN(Cc1c[nH]c3ccccc13)CCO2)c1ccccn1 (stereo not drawn),"inconclusive: 29.1 µM [inhibitor, single point]",
CCOC(=O)N1CCN(C(=O)c2oc3ccc(S(=O)(=O)N(CC)CC)cc3c2C)CC1,"inconclusive: 16.4 µM [inhibitor, single point]",
O=C(COCc1cc(-c2ccc3c(c2)OCO3)on1)N1CCN(c2cccc(C(F)(F)F)c2)CC1,active: 13 µM,
Cc1ccc(C(=O)Nc2ccccc2[N+](=O)[O-])cc1S(=O)(=O)N1CCOCC1,inactive,
O=C(NCc1cccc2ccccc12)Nc1ccccc1,"inconclusive: 29.1 µM [inhibitor, single point]",
COc1ccc(N(CC(=O)Nc2ccc(F)cc2F)S(=O)(=O)c2c(C)nn(C)c2C)cc1,inactive,
C[c-]1[c-](C)[c-](C)[c-](C)[c-]1C.[Fe].c1cc2nccc(N3CCCC3)[c-]2c1 (stereo not drawn),"inconclusive: 25.9 µM [inhibitor, single point] and active: 8.2 µM",
CCOC(=O)C1(CCCc2ccccc2)CCN(Cc2nccn2CC)CC1,"inconclusive: 29.1 µM [inhibitor, single point]",
COc1cccc(NS(=O)(=O)c2ccc3[nH]cc(C(=O)NCCc4ccc(C)cc4)c(=O)c3c2)c1,active: 14.6 µM,
Cc1ccc(-n2ccnc(NCc3cccs3)c2=O)cc1C,"inconclusive: 29.1 µM [inhibitor, single point]",
Cc1cccc(-n2nnnc2SCC(=O)NCC2(N3CCOCC3)CCCCC2)c1C,active: 18.4 µM,
CC(=O)N1c2ccc(S(=O)(=O)N3CCCCC3)cc2CC1C(=O)NCc1ccc(N(C)C)cc1 (stereo not drawn),"inconclusive: 29.1 µM [inhibitor, single point]",
Cc1cccc(Cn2c(SCc3ccc(C(=O)NCc4ccccc4F)cc3)nc3cccnc32)c1,"inconclusive: 6.51 µM [inhibitor, single point]",
C#CCn1c(=NC(=O)CSC(C)=O)sc2cc(F)ccc21,active: 10.3 µM,
CC1CN(C(=O)Nc2ccc3snnc3c2)c2ccccc21 (stereo not drawn),"inconclusive: 20.6 µM [inhibitor, single point]",
COc1ccc(OCCSc2nnc(-c3ccccc3)n2N)cc1,"inconclusive: 25.9 µM [inhibitor, single point]",
Cc1cc(C)c2oc(C(=O)Nc3nc4ccc(Cl)cc4s3)cc(=O)c2c1,inactive,
CN1CCN(/N=C/c2ccc(OCc3ccccc3)cc2)CC1,"inconclusive: 16.4 µM [inhibitor, single point]",
CCCS(=O)(=O)c1nc(S(=O)(=O)c2ccc(C)cc2)c(NC(C)c2ccccc2)s1 (stereo not drawn),"inconclusive: 18.4 µM [inhibitor, single point]",
CCOc1ccc(OCC)c(NC(=O)C2CCCN(c3ncccn3)C2)c1 (stereo not drawn),"inconclusive: 29.1 µM [inhibitor, single point]",
O=C(NCCC1CCCCN1S(=O)(=O)c1ccc(F)cc1)C(=O)Nc1ccccc1 (stereo not drawn),"inconclusive: 18.4 µM [inhibitor, single point]",

SMILES,Potency,"activity change, negative = growth inhibition"
COc1ccc(Cl)cc1S(=O)(=O)N1CCCC1=O,"inconclusive: 29.1 µM [inhibitor, single point]",
Cc1cc(C)c2c(n1)sc1c(=O)n(CC(=O)c3ccccc3)cnc12,,inconclusive: -35.7% [inhibitor]
COc1ccc2oc(=O)c(-c3nc4ccc(C)cc4[nH]3)cc2c1,active: 1.03 µM,
CN(C)CCCN(C(=O)c1ccc(S(=O)(=O)N2CCc3ccccc32)cc1)c1nc2c(Cl)cccc2s1,"inconclusive: 25.9 µM [inhibitor, single point]",
O=C(Nc1ccnn1C1CCN(C2CCCC2)CC1)c1ccccc1,inactive,
O=C(CCCNS(=O)(=O)c1cccc2nsnc12)NCCN1CCN(c2ccccc2F)CC1,"inconclusive: 16.4 µM [inhibitor, single point]",
O=C(c1cccc(Cl)c1)C1CCCN(C(=O)c2ccc3c(c2)OCO3)C1 (stereo not drawn),,inconclusive: -30.3% [inhibitor]
CCOC(=O)NC1(Nc2cccc(Cl)c2)Oc2ccccc2O1,"inconclusive: 23.1 µM [inhibitor, single point]",
O=C1c2ccccc2C(=O)N1CCc1c[nH]c2ccc(O)cc12,inactive,
COc1ccccc1NC(=O)Cc1c(F)cccc1Cl,"inconclusive: 18.4 µM [inhibitor, single point]",
COc1ccc(C(=O)C(CCCCC(CN(C)C)C(=O)c2ccc(OC)cc2)CN(C)C)cc1 (stereo not drawn),active: 20.6 µM,
CCc1ccc2c(c1)NC(=O)C2(C)Cc1ccc(OC(F)(F)F)cc1 (stereo not drawn),active: 20.6 µM,
CNC(=S)N/N=C/c1cc(Br)c(OCc2ccncc2)c(OC)c1,"inconclusive: 29.1 µM [inhibitor, single point]",
O=C(/C=C/c1cccc(Br)c1)NC1CCN(Cc2ccccc2)CC1,"inconclusive: 29.1 µM [inhibitor, single point]",
COc1ccc(N(C2CSC2)S(=O)(=O)c2ccccc2)cc1,"inconclusive: 4.11 µM [inhibitor, partial curve]",
COC(=O)CCC(=O)N(CCN(Cc1ccccc1)C(=O)CCC(=O)OC)Cc1ccccc1,,inconclusive: -32.8% [inhibitor]
O=C(NCc1nnc(SCC(=O)N2CCCc3ccccc32)n1-c1ccccc1)c1cccc2ccccc12,"inconclusive: 29.1 µM [inhibitor, single point]",
COc1ccc(OCC(O)CN(C)C(=O)C(C)Oc2ccccc2)cc1 (stereo not drawn),inactive,
CCOc1ccc(OCCCC(=O)N2CCN(S(=O)(=O)c3ccccc3C#N)CC2)cc1,"inconclusive: 23.1 µM [inhibitor, single point]",
CC1=C(C(=O)N2CCOCC2)CC(CC(=O)NCCc2ccccn2)C(=O)N1Cc1ccccc1 (stereo not drawn),inactive,
OC(CN1CCN(C(c2ccccc2)c2ccccc2)CC1)c1ccccc1 (stereo not drawn),"inconclusive: 29.1 µM [inhibitor, single point]",
COc1ccc(-c2ccc(C(=O)NCCN(C)C)c3occc23)c(C)c1,"inconclusive: 29.1 µM [inhibitor, single point]",
